Assay results published in PubChem BioAssay AID651820 (National Center for Advancing Translational Sciences (NCATS), 2012).
Screen size: about 340,000 compounds; about 12,000 (3.5%) were called active. The shares of active, inactive and inconclusive entries below differ from those in the screen. Calls follow the shape of the dose curve; as a rule, active = well fitted inhibition curve with a large enough effect; inconclusive = small, poorly fitted or top-dose-only effect, or another doubt; inactive = no such curve, though single readings can be large or run the other way. No potency is given beside an inconclusive call; the fits are too rough.

Experiment: qHTS Assay for Inhibitors of Hepatitis C Virus (HCV)
Details: Huh7.5.1 HCVcc-Cre (HCVcc is cell-culture hepatitis C virus) infection, luciferase reporter, 44 h; activity change, negative = inhibition: at 41.8 µM (top of the series)
How it was run: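 1,000 cells/well; 4 h culture; + compound; + HCVcc-Cre (~0.5 moi); 44 h; luciferase substrate, RT 15 min; read 15 sec.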
% is scaled to controls: 0 for no effect and ±100 for the full control effect; potency is read from the fitted curve at half-maximal effect; tags tell the direction and shape of the fitted curve.

Row | SMILES | Potency | activity change, negative = inhibition
1 | Cc1ccc(C(=O)Nc2cccnc2)cc1Cl | inactive | –
2 | COC(=O)c1cc(CSc2nnc(NC3CCCCC3)s2)oc1C | inconclusive [inhibitor, partial curve] | –
3 | CC(=O)Nc1cccc(NC(=O)c2cc(C)on2)c1 | inactive | –
4 | CC(C)OC(=O)/C(=C/c1ccc2c(c1)c1ccccc1n2C)NC(=O)c1ccccc1 | inconclusive [inhibitor, single point] | –
5 | COC(=O)CNC(=O)/C=C/c1ccc(OC)cc1 | inactive | –
6 | CCOc1ccccc1NC(=O)CSc1nnc(-c2ccccc2Cl)n1Cc1ccco1 | inconclusive [inhibitor, single point] | –
7 | O=c1c2sc3nc(N4CCOCC4)c4c(c3c2ncn1CCc1ccccc1)CCCC4 | inactive | –
8 | COc1cc(C)nc(NC(=S)N(C)C(=O)c2ccccc2)n1 | inconclusive [inhibitor, single point] | –
9 | O=C(CCc1ccc(S(=O)(=O)N2CCOCC2)cc1)N/N=C/c1ccc(F)cc1F | inactive | –
10 | CCOC(=O)N1C2C=CC(C2)N1C(=O)OCC | inactive | –
11 | CN(CCO)c1ccc(-c2n[nH]c(=O)c3ccccc23)cc1[N+](=O)[O-] | inactive | –
12 | CC(=O)O[C@@]12CO[C@@H]1C[C@H](OC1OCC(O)C(O)C1O)[C@@]1(C)C(=O)[C@H](O)C3=C(C)[C@@H](OC(=O)[C@H](O)[C@@H](NC(=O)c4ccccc4)c4ccccc4)C[C@@](O)([C@@H](OC(=O)c4ccccc4)C12)C3(C)C (some centres undefined) | inactive | –
13 | Cc1ccnc2c1ccc1c(C)ccnc12 | active: 5.62 µM | –
14 | O=C(CN1CCC(NC(=O)C2CC2)CC1)Nc1ccccc1[N+](=O)[O-] | inconclusive [inhibitor, single point] | –
15 | CCOC(=O)c1cnc2c(c(C)nn2CC)c1NC1CC1 | inconclusive [inhibitor, single point] | –
16 | CCOC(=O)c1[nH]c2cc3c(cc2c1NC(=O)CN1CC(C)CC(C)C1)OCO3 (centres undefined) | inactive | –
17 | COc1ccc(C(=O)C2CCCN(Cc3cnc(C)s3)C2)c(OC)c1 (centres undefined) | inconclusive [inhibitor, partial curve] | –
18 | COP(=O)(OC)c1nc(-c2ccc([N+](=O)[O-])cc2)oc1N1CCCCC1 | inactive | –
19 | CCOc1ccccc1NC(=O)CCNS(=O)(=O)c1cccc2nonc12 | inconclusive [inhibitor, partial curve] | –
20 | COc1ccccc1C(=O)N(CCC1CCCN1C)c1nc2ccccc2s1 (centres undefined) | inactive | –
21 | O=C(NNC(=O)c1ccccc1-c1ccccc1C(=O)O)c1cccc([N+](=O)[O-])c1 | inactive | –
22 | O=C(Nc1ccccc1)NC1CCS(=O)(=O)C1 (centres undefined) | inactive | –
23 | CN(Cc1ccc(OC(F)F)cc1)C(=O)c1ccccc1Sc1ccccc1C#N | inconclusive [inhibitor, single point] | –
24 | COc1ccc(CCNC(=O)c2nc(-c3cccs3)no2)cc1OC | inconclusive [inhibitor, single point] | –
25 | O=C(COC(=O)c1ccc(O)cc1O)NC1CCCCCC1 | active: 12.6 µM | –

Row | SMILES | Potency | activity change, negative = inhibition
26 | C=CCn1c(=O)/c(=C/c2ccc(Cl)cc2)s/c1=C(/C#N)c1nnc2n1CCCCC2 | inconclusive [inhibitor, partial curve, poor fit] | –
27 | CN(C(=O)CSc1nnnn1-c1ccc(O)cc1)C1CCS(=O)(=O)C1 (centres undefined) | inconclusive [inhibitor, single point] | –
28 | CNC(=S)NCCCc1ccccc1 | inactive | –
29 | O=C(COC(=O)/C=C/c1ccc(OC(F)F)cc1)NC1CCCCC1 | inactive | –
30 | Cc1cs/c(=N\N=C\c2ccccc2)n1Cc1ccco1 | inconclusive [inhibitor, partial curve] | –
31 | Cc1cc(C)c(C(=O)OCC(=O)Nc2cccc(S(=O)(=O)N3CCCCC3)c2)c(C)c1 | inconclusive [inhibitor, partial curve] | –
32 | O=C(Nc1cc(S(=O)(=O)N2CCCCC2)ccc1Cl)c1ccc(F)cc1 | inconclusive [inhibitor, single point] | –
33 | O=C(CCc1nc2ccccc2[nH]1)NCc1ccc2c(c1)OCO2 | – | inactive: -14.6% [at 8.37 µM]
34 | Cc1ccc(C)c(Cn2c(=O)n(C)c(=O)c3sccc32)c1 | inactive | –
35 | CCOc1cc(C2NC(=O)CCC2[N+](=O)[O-])cc(Br)c1OCC (centres undefined) | inactive | –
36 | O=C(c1ccc(Cl)c(S(=O)(=O)N2CCCCC2)c1)N1CCCCC1 | inconclusive [inhibitor, single point] | –
37 | Cc1ccccc1-n1cnnc1SCC(=O)Nc1cccnc1Cl | inconclusive [inhibitor, single point] | –
38 | CCC1CCCCN1CCCNC(=O)c1ccc2c(=O)n(Cc3ccc(OC)cc3)c(=O)[nH]c2c1 (centres undefined) | active: 14.1 µM | –
39 | O[Si](CCCN1CCCCC1)(c1ccc(F)cc1)C1CCCCC1 (centres undefined) | inconclusive [inhibitor, single point] | –
40 | COc1ccccc1CCNC(=O)C(=O)NCC1OCCN1S(=O)(=O)c1ccc2c(c1)OCCO2 (centres undefined) | inconclusive [inhibitor, single point] | –
41 | CC1=C(C(=O)Nc2ccccc2)S(=O)(=O)CCO1 | inconclusive [inhibitor, single point] | –
42 | Cc1ccc(S(=O)(=O)NCc2cn3ccccc3n2)c(C)c1 | inactive | –
43 | COc1cccc(OCc2nc3ncc(Br)cc3[nH]2)c1 | inconclusive [inhibitor, partial curve, poor fit] | –
44 | C=CCN1C=C2C(=O)C(C)(OC(=O)C3CCCC3)C(=O)C(c3ccccc3)=C2C=C1CCCC(=O)OC (centres undefined) | inactive | –
45 | COCCNCCCCOc1ccc(Br)cc1C | active: 10 µM | –
46 | O=C(c1cn(-c2ccccc2)nc1-c1cccc(Br)c1)N1CCOCC1 | inconclusive [inhibitor, partial curve] | –
47 | COc1ccc(C2=NOC(C(=O)NCc3ccco3)C2)cc1 (centres undefined) | inconclusive [inhibitor, partial curve] | –
48 | Cc1ccc(C(=O)N2CCN(c3cc4c(cc3[N+](=O)[O-])n(C)c(=O)n4C)CC2)cc1 | inconclusive [inhibitor, partial curve] | –
49 | CCOC(=O)C1CCCN(C(=O)c2ccccc2NC(C)=O)C1 (centres undefined) | inactive | –
50 | CC(C)Nc1nc(Cl)nc(NCCOc2ccccc2)n1 | inconclusive [inhibitor, single point] | –

Row | SMILES | Potency | activity change, negative = inhibition
51 | CCOc1ccccc1NC(=O)Nc1cccc(S(N)(=O)=O)c1 | active: 31.6 µM | –
52 | Cn1c(Nc2ccc(Cl)cc2)cc(=O)n(C)c1=O | inactive | –
53 | CC(NC(=S)Nc1cccc(C(F)(F)F)c1)C(C)(C)C (centres undefined) | inconclusive [inhibitor, single point] | –
54 | Cc1ccccc1NC(=O)c1ccc(-c2ccc(Cl)cc2Cl)o1 | active: 12.6 µM | –
55 | COc1ccc(C(=O)N2CCc3cc4c(cc3C2C)OCCCO4)cc1 (centres undefined) | active: 1.58 µM | –
56 | CCc1ccc(N(CC(=O)NC(C)C)C(=O)CCC(=O)Nc2ccccn2)cc1 | inactive | –
57 | Cc1cc(OCC(=O)NCCc2c[nH]c3ccccc23)c2c(C)c(C)c(=O)oc2c1 | inconclusive [inhibitor, single point] | –
58 | O=C(N/N=C/c1ccccc1O)c1cccc2ccccc12 | inconclusive [inhibitor, partial curve] | –
59 | COc1ccc(C(=O)Nc2cccc(C(=O)NCc3ccco3)c2)cc1 | inconclusive [inhibitor, single point] | –
60 | COc1ccccc1C(=O)NCCNc1nc2cc(C)cc(C)c2cc1C#N | inconclusive [inhibitor, full curve, poor fit] | –
61 | Cc1cccc(NC(=O)CSc2nnc(CNC(=O)c3ccc(S(=O)(=O)N(C)C)cc3)n2-c2ccccc2)c1 | inconclusive [inhibitor, full curve] | –
62 | Cc1ccc(C(=O)NC2CCc3ccccc3C2=O)cc1 (centres undefined) | inactive | –
63 | COc1cc2c3nnc(-c4ccc(F)cc4)c-3cn(Cc3ccccc3)c2cc1OC | inconclusive [inhibitor, single point] | –
64 | Cc1cc(/C=N\NC(=O)COc2cccc3cccnc23)c(C)n1-c1ccccc1 | inconclusive [inhibitor, single point] | –
65 | CCOc1cc2c(cc1C(C)(C)C)NC(=O)CS2 | inconclusive [inhibitor, full curve, poor fit] | –
66 | CC1=Nc2ccccc2/C1=C/c1sc(=O)n(CC(=O)N2CCCC2)c1O | inconclusive [inhibitor, partial curve] | –
67 | O=C(c1cc(-c2cccnc2)nc2ccc(Cl)cc12)N1CCN(S(=O)(=O)c2cccs2)CC1 | inconclusive [inhibitor, single point] | –
68 | COc1c(Cl)cnn(-c2cccc(C)c2)c1=O | inactive | –
69 | COc1cccc(/C=C/C(=O)NNC(=O)c2ccco2)c1OC | inactive | –
70 | O=C(CSc1nc2ccccc2n1Cc1ccccc1)N/N=C/c1ccccc1C(=O)O | inactive | –
71 | COc1ccc(C(CCN2CCCC(C)C2)c2c(OC)cc(OC)c3c2OC(=O)CC3c2cc(OC)c(OC)c(OC)c2)cc1 (centres undefined) | inactive | –
72 | CCC1=NN2C(=N)/C(=C/c3cc(C)n(-c4ccccc4)c3C)C(=O)N=C2S1 | inconclusive [inhibitor, single point] | –
73 | O=C(NC1=NCCS1)C1CCN(S(=O)(=O)c2cc([N+](=O)[O-])ccc2Cl)CC1 | inconclusive [inhibitor, partial curve] | –
74 | C/C=C\C=C\C(=O)Nc1cccc(C2=NOC3(C2)C[C@@H](C(N)=O)N(C(=O)C(c2ccccc2)c2ccccc2)C3)c1 (some centres undefined) | inconclusive [inhibitor, partial curve] | –
